Laboratory results taken from PubChem BioAssay AID485344 (National Center for Advancing Translational Sciences (NCATS), 2010).
Among all 340,000 compounds or so, about 6,900 (2%) were called active. No stated cut-off is given here; in the data, active means inhibition above about 30%; inactive means below that, where a call was filed. Only a part is listed here, and it is no random draw. Entries without a call were filed so in the source.

biological target: D(2) dopamine receptor (Homo sapiens) (UniProt P14416); test: HTS Assay for Allosteric Antagonists of the Human D2 Dopamine Receptor: Primary Screen for Antagonists; settings: HEK293 TREx D2 cells, calcium flux, dopamine EC80; at 10 µM; stronger effect = higher value; further: 0% is about no effect
Procedure, shortened: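 Calcium flux kinetic readout in an inducible HEK293 TREx D2 line plated overnight at 30 C. After 180 s compound exposure, an EC80 dopamine challenge follows with another 180 s kinetic read to detect antagonism.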

Chain of UniProt P14416 (P14416 whole entry, looked up): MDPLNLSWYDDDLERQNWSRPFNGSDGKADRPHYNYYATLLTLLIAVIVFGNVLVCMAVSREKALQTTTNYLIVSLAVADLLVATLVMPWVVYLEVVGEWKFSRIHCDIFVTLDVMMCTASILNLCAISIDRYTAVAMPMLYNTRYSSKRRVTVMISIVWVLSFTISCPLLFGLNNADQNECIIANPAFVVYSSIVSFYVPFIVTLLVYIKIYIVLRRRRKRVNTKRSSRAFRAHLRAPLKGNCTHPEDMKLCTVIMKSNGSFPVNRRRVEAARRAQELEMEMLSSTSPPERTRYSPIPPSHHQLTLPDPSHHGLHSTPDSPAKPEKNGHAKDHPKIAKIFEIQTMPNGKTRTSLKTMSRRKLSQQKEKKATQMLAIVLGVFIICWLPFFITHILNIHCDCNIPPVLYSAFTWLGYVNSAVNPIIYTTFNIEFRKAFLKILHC

| Compound | inhibition |
| --- | --- |
| Cc1cc(NC(=O)CSc2ncc(C(=O)Nc3ccc(C)c(C)c3)c(=O)n2C)no1 | 20.7% |
| Cc1cccc(Nc2nc3c(S(=O)(=O)c4ccc(Br)cc4)nnn3c3ccsc23)c1C | 3.28% |
| Cc1cc(C)c2oc(-c3cccc(NC(=O)COc4ccccc4Cl)c3C)nc2c1 | 23.2% |
| CCOc1ccccc1C(=O)NCc1ccc2c(c1)CCN2C(=O)c1ccccc1 | 20.1% |
| Cc1ccc(NC(=O)CCSc2nc(-c3ccc4c(c3)OCO4)cc(C(F)(F)F)n2)c(C)c1 | -9.16% |
| COc1ccc(CCNC(=O)c2ccc(Cn3c(SCC(=O)NCCC(C)C)nc4cc5c(cc4c3=O)OCO5)cc2)cc1OC | 0.241% |
| CS(=O)(=O)c1ncc(Cl)c(C(=O)Nc2c(C(=O)c3ccc(Cl)cc3)oc3ccccc23)n1 | 25.3% |
| Clc1cccc(-n2ncc3c(NCCCN4CCOCC4)ncnc32)c1 | 21.6% |
| CC1CCN(C(=O)CSc2nnc(NC(=O)Nc3ccccc3)s2)CC1 | -4.98% |
| Cc1ccc2c(c1)N(C(=O)CCC(=O)NCc1cccs1)CC(C)O2 (centres undefined) | 10.5% |
| COC(=O)c1ccccc1NC(=O)Cn1c(CCC(=O)O)ccc1-c1ccc(C)cc1 | 19.8% |
| Cc1cccc(CC(=O)Nc2c(C(=O)Nc3cccc(F)c3)oc3ccccc23)c1 | -10.3% |
| Cc1cc(C)cc(C(=O)O/N=C(\N)c2ccc(Br)cc2)c1 | active: 35.2% |
| CC1CCN(CC(O)CN2c3ccccc3Sc3ccccc32)CC1 (centres undefined) | active: 70.9% |
| CCOC(=O)c1c(NC(=O)COc2ccc(C(C)(C)C)cc2)sc2c1CCCC2 | 2.66% |
| Cc1ccc(Cc2nc3ccccc3nc2SCC(=O)NCc2ccccc2Cl)cc1 | -2.92% |
| Cc1ccc(-c2nnn(CC(=O)N(c3ccccc3)C(C(=O)NC3CCCC3)c3ccco3)n2)o1 (centres undefined) | active: 32.8% |
| CCc1cccc(CC)c1NC(=O)Cn1nnc2sc3c(c2c1=O)CCCC3 | 3.39% |
| Cc1ccc(NC(=O)c2c(C)nn(-c3ccccc3)c2-n2cccc2)c(Cl)c1 | -9.36% |
| CCOc1cccc(C(=O)N(Cc2ccc(F)cc2)Cc2ccco2)c1 | 0.538% |
| Cc1ccc(N2C(=O)CCSC23C(=O)N(Cc2ccc(F)cc2)c2ccccc23)cc1 (centres undefined) | 5.11% |
| COCCn1c(SCC(=O)c2ccc(F)cc2)nc2cc(C(=O)NC3CCCC3)ccc2c1=O | 2.72% |
| Cc1ccc(N2C(=O)CS(=O)(=O)C23C(=O)N(Cc2ccc(Cl)cc2)c2ccccc23)cc1C (centres undefined) | 16% |
| COc1ccc(OC)c(NC(=O)Cn2c(=O)n(-c3ccc(Cl)cc3)c(=O)c3c(C)c(C)sc32)c1 | -6.61% |

| Compound | inhibition |
| --- | --- |
| COc1ccc(Cl)cc1NC(=O)C1CCN(S(=O)(=O)c2ccc(F)cc2)CC1 | 14.5% |
| CCOc1ccccc1NC(=O)CSc1ccc2nc(-c3ccccc3)cn2n1 | 1.16% |
| CCOc1ccc(/C=C/c2nc(C#N)c(NCCCN(C)C)o2)cc1 | -1.75% |
| CC/C(=N/Nc1ccc(Cl)cc1)c1cnnc(SC)n1 | active: 33.6% |
| CCc1ccc2oc(-c3ccc(NC(=O)c4cccc(Cl)c4Cl)cc3)nc2c1 | -6.6% |
| O=C(Cn1cnc2c(nc3n2CCCCC3)c1=O)Nc1cccc(C(F)(F)F)c1 | -19.3% |
| COC(=O)c1ccccc1NC(=O)Cn1c(=O)n(CCCC(=O)NCc2ccccc2Cl)c(=O)c2ccccc21 | -13.9% |
| COc1ccc(N2CCN(CCCNC(=O)c3ccc4nc(Cc5ccccc5)oc4c3)CC2)cc1 | 3.58% |
| CCOc1ccc(CNC(=O)C2CCCN(c3nn4cc(-c5ccc(F)cc5)nc4s3)C2)cc1 (centres undefined) | -28.2% |
| COc1ccc(-n2c(=O)c3c(c4cc(OC)ccc4n3C)n(CC(=O)N3CCCC3)c2=O)cc1 | 3.21% |
| CCc1ccc(NC(=O)CCCc2nnc3n(CCCOC)c(=O)c4sccc4n23)cc1 | -0.53% |
| Cc1cc(C)cc(NC(=O)c2cccc(C(=O)Nc3cc(C)cc(C)c3)c2)c1 | -7.63% |
| CSc1cccc(NC(=O)CN2C(=O)CCc3cc(S(=O)(=O)N4CCCCC4)ccc32)c1 | -12.5% |
| Cc1ccc(NC(=O)C(C)Sc2nc3c(c(=O)[nH]2)CCCC3)cc1Cl (centres undefined) | 6.69% |
| COc1ccc2c(c1)CC(C(=O)NCCc1ccc(S(N)(=O)=O)cc1)CO2 (centres undefined) | 23.8% |
| Cc1ccc(C)c(OC(=O)CSc2nnc(-c3cccs3)o2)c1 | -18% |
| O=C1c2ccccc2C(=O)N1CCCc1nc(-c2ccccn2)no1 | active: 35.9% |
| CCCC(=O)Nc1cc(-c2nnc3c4ccccc4c(C)nn23)ccc1C | -4.83% |
| Cn1c(=O)n(C)c2cc(N3CCOCC3)c(NS(=O)(=O)c3ccc(Cl)cc3)cc21 | -3.4% |
| Cc1ccc(-n2c(=O)c3c(cnn3C)n(CC(=O)Nc3cccc(C)c3)c2=O)cc1 | -0.255% |
| COc1ccccc1N1CCN(C(=O)c2cc3c(-c4ccccc4F)nn(C)c3s2)CC1 | -8.28% |
| COc1ccc(CCNC(=O)Cn2c(-c3ccc(F)cc3)cc(C(C)=O)c2C)cc1OC | -7.73% |
| CCOC(=O)Cn1c(CN2CCN(c3ccc(OC)cc3)CC2)nc2c1c(=O)[nH]c(=O)n2C | 7.16% |
| Cc1cc(=O)n(Cc2c(F)cccc2Cl)c2c1c(C)nn2C | -2.48% |

| Compound | inhibition |
| --- | --- |
| CCOc1ccc2nc(N(Cc3cccnc3)C(C)=O)sc2c1 | 1.84% |
| O=C1CC(=O)Nc2cc(S(=O)(=O)Nc3ccc(F)cc3Cl)ccc2N1 | 5.79% |
| Cc1ccc(OCCSc2nc3ccc(NC(=O)c4ccco4)cc3s2)cc1 | -12.2% |
| COc1ccc(-c2cc3ccc(O)c(CN4CCCCC4C)c3oc2=O)cc1OC (centres undefined) | 9.09% |
| CC(=O)N1CCc2cc(S(=O)(=O)NC(Cc3ccccc3)C(=O)NCc3ccccc3Cl)ccc21 (centres undefined) | 13.9% |
| O=C(CCNS(=O)(=O)c1ccc2c(c1)CCN2C(=O)C1CC1)N1CCN(c2cccc(C(F)(F)F)c2)CC1 | 18% |
| COCc1oc2ccc(NS(=O)(=O)c3ccc(C)cc3)cc2c1C(=O)OC | -7.66% |
| Cc1ccc(CNC(=O)CCc2nc3cccnc3n2Cc2ccccc2)cc1 | 11% |
| CC(=O)Nc1ccc(NC(=O)C(NS(=O)(=O)c2ccc(Br)s2)c2ccccc2)cc1 (centres undefined) | -8.88% |
| COc1cc(NC(=O)Cn2nnnc2-c2ccccc2F)cc(OC)c1OC | -13.2% |
| COc1ccc(C(=O)NC2CC3CCCC(C2)N3Cc2ccccc2)cc1OC (centres undefined) | active: 81.7% |
| Cc1ccc(Cn2cc(S(=O)(=O)c3ccc(Cl)cc3)c(=O)c3cc4c(cc32)OCO4)cc1 | -0.324% |
| COCCn1c(C)cc(/C=C(\C#N)C(=O)OC(C)C(=O)Nc2ccc(NC(C)=O)cc2)c1C (centres undefined) | active: 33.4% |
| CCN(C(=O)Cn1c(=O)n(Cc2ccc3c(c2)OCO3)c(=O)c2ccc(C(=O)NC3CCCCC3)cc21)c1cccc(C)c1 | 10.8% |
| COc1ccc(OC)c(S(=O)(=O)N2CCN(Cc3nc4ccc(C)cc4o3)CC2)c1 | 16.6% |
| COC(=O)c1ccc(-n2c(/C=C/c3cc(OC)c(OC)c(OC)c3)nc3cc(Cl)ccc3c2=O)cc1 | 6.94% |
| Cc1cccc2c(=O)cc(CSc3ccccc3NC(=O)C(C)(C)C)[nH]c12 | -8.13% |
| CCCC(=O)Nc1ccccc1C(=O)OCc1cc(=O)n2nc(C(C)C)sc2n1 | 4.08% |
| COc1ccc(OCc2ccc(-c3nc(C#N)c(NCc4cccnc4)o3)o2)cc1 | 12.4% |
| CCOC(=O)c1cc(S(=O)(=O)NCc2ccc(OC)cc2)[nH]n1 | 0.239% |
| CCC(=O)N1CCCc2cc(S(=O)(=O)N3CCC(C(=O)Nc4ccc(C#N)cc4)CC3)ccc21 | 28.1% |
| CC(=O)c1cccc(NC(=O)Cn2cc(C(=O)c3cccc(Cl)c3)c(=O)c3ccc(C)nc32)c1 | -20.9% |
| Cc1ccc(C(=O)N2CCOCC2)cc1S(=O)(=O)Nc1cccc(C)c1C | active: 41.6% |
| COc1ccc(NS(=O)(=O)c2ccc(C)c(NC(=O)NC3CCCCC3)c2)cc1 | active: 33.5% |

| Compound | inhibition |
| --- | --- |
| Cc1ccc2nc3c(cc(C(=O)NCc4ccco4)c(=N)n3C(C)C)c(=O)n2c1 | 5.57% |
| CC(NC(=O)CSc1nc(-c2ccccc2F)nc2cc(=O)[nH]n12)c1nc2ccccc2n1C (centres undefined) | -1.85% |
| Cc1ccc(CNC(=O)Cn2ccn(-c3ccc(F)cc3)c(=O)c2=O)cc1 | -21.4% |
| O=C(Nc1ccc(N2CCOCC2)c(C(=O)O)c1)c1ccc(Br)cc1 | -8.42% |
| Cc1cccc(CN2C(=O)c3ccccc3S(=O)(=O)c3ccc(C(=O)NC4CCCCC4)cc32)c1 | 5.29% |
| COc1ccc(NC(=O)c2cc3c(=O)n(Cc4cccnc4)ccc3nc2C)c(OC)c1 | -4.6% |
| CCOC(=O)Cc1ccc2sc(-c3ccccc3)nc2c1 | active: 32.2% |
| COc1ccc(OCC(=O)NC(Cc2c[nH]c3ccccc23)C(=O)O)cc1 (centres undefined) | -9.8% |
| C/C=C(\C)CN1CCN(c2cccc(C)c2C)CC1 | active: 85% |
| CCc1nnc(SC(CC)C(=O)Nc2cc(C)ccc2C)c2cc3occc3n12 (centres undefined) | 1.06% |
| CC1CCN(CCCNC(=O)CN2C(=O)CSc3ccc(S(=O)(=O)N4CCOCC4)cc32)CC1 | 22.4% |
| COc1cc(C2c3c(oc4ccccc4c3=O)C(=O)N2Cc2ccc(C)cc2)ccc1O (centres undefined) | 17.2% |
| Cc1ccc(C)c(NS(=O)(=O)c2ccc3oc(=O)c4ncn(C)c4c3c2)c1 | 3.65% |
| CCn1c(=O)c2cc(C(=O)NCCc3ccc(Cl)cc3)sc2c2ccccc21 | 7.04% |
| COc1cc(/C=N/N2C(=O)CSC2=S)cc(Br)c1O | active: 43.6% |
| Cc1ccc(N(C)C(=O)C2CCN(S(=O)(=O)c3cn(C)cn3)CC2)cc1 | 0.181% |
| CCn1c(=O)c2sccc2n2c(CCC(=O)Nc3ccc(C(C)C)cc3)nnc12 | 1.2% |
| COc1cccc(NC(=O)c2c(C(=O)Nc3ccccc3)sc3nc(C)cc(=O)n23)c1 | -28.6% |
| CCOc1ccc(/C=C/C(=O)Nc2sc3c(c2C(=O)OC)CCC3)cc1 | 11.7% |
| O=S(=O)(c1ccccc1)c1nc(-c2ccc(F)cc2)oc1N1CCCCCC1 | -10.3% |
| CCc1ccc(NC(=O)CSc2nc3ncccc3[nH]2)cc1 | -9.79% |
| Cc1ccc(C)c(CNC(=O)c2cnc3sc(N4CCCC4)nn3c2=O)c1 | -5.14% |
